Reference: the supplement of paper PMC6089552
Out of some 3,200 compounds screened, about 300 (9.4%) showed activity. The entries are a selection whose mix differs from that of the whole data set.

Tested on: A673/TR/shEF
Assay: cell viability (LOESS-normalised, relative to median of negative controls) (log2 ratio); higher = more viable cells (less compound effect), active = hit call of the paper (over 3 MAD below the median)
Settings: treatment time: 72 h
Outline: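 Doxycycline, present or absent from 24 h before compounds, was used to induce EWS-FLI1 shRNA knockdown in A673/TR/shEF Ewing sarcoma cells at 1,500 per well in 384-well plates. Cells then received library compounds at two or more concentrations, or DMSO controls, for three days. Viability was measured by CellTiter-Glo luminescence on an Envision reader, and per-plate LOESS correction, division by the negative-control median and log2 transformation followed.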

[1] = 0.025 µM, library screen: screen2, EWS-FLI1 expression: high (no doxycycline)
[2] = 0.025 µM, library screen: screen2, EWS-FLI1 expression: low (doxycycline-induced shRNA knockdown)
[3] = 0.25 µM, library screen: screen1, EWS-FLI1 expression: high (no doxycycline)
[4] = 0.25 µM, library screen: screen1, EWS-FLI1 expression: low (doxycycline-induced shRNA knockdown)
[5] = 0.25 µM, library screen: screen2, EWS-FLI1 expression: high (no doxycycline)
[6] = 0.25 µM, library screen: screen2, EWS-FLI1 expression: low (doxycycline-induced shRNA knockdown)
[7] = 2.5 µM, library screen: screen1, EWS-FLI1 expression: high (no doxycycline)
[8] = 2.5 µM, library screen: screen1, EWS-FLI1 expression: low (doxycycline-induced shRNA knockdown)
[9] = 2.5 µM, library screen: screen2, EWS-FLI1 expression: high (no doxycycline)
[10] = 2.5 µM, library screen: screen2, EWS-FLI1 expression: low (doxycycline-induced shRNA knockdown)
[11] = 25 µM, library screen: screen2, EWS-FLI1 expression: high (no doxycycline)
[12] = 25 µM, library screen: screen2, EWS-FLI1 expression: low (doxycycline-induced shRNA knockdown)
[13] = 0.103 µM, library screen: screen3, EWS-FLI1 expression: high (no doxycycline)
[14] = 0.103 µM, library screen: screen3, EWS-FLI1 expression: low (doxycycline-induced shRNA knockdown)
[15] = 0.308 µM, library screen: screen3, EWS-FLI1 expression: high (no doxycycline)
[16] = 0.308 µM, library screen: screen3, EWS-FLI1 expression: low (doxycycline-induced shRNA knockdown)
[17] = 0.926 µM, library screen: screen3, EWS-FLI1 expression: high (no doxycycline)
[18] = 0.926 µM, library screen: screen3, EWS-FLI1 expression: low (doxycycline-induced shRNA knockdown)
[19] = 2.8 µM, library screen: screen3, EWS-FLI1 expression: high (no doxycycline)
[20] = 2.8 µM, library screen: screen3, EWS-FLI1 expression: low (doxycycline-induced shRNA knockdown)
[21] = 8.3 µM, library screen: screen3, EWS-FLI1 expression: high (no doxycycline)
[22] = 8.3 µM, library screen: screen3, EWS-FLI1 expression: low (doxycycline-induced shRNA knockdown)
[23] = 25 µM, library screen: screen3, EWS-FLI1 expression: high (no doxycycline)
[24] = 25 µM, library screen: screen3, EWS-FLI1 expression: low (doxycycline-induced shRNA knockdown)

Measured: cell viability (log2)

O=NN(CCCl)C(=O)NCCCl
inactive: [1] 0.0358 | [2] -0.0301 | [3] 0.0968 | [4] 0.0497 | [5] 0.0788 | [6] 0.0584 | [7] 0.0465 | [8] 0.027 | [9] 0.0723 | [10] 0.0689 | [11] 0.0128 | [12] -0.00633

CCOC(=O)c1ncn2c1CN(C)C(=O)c1cc(F)ccc1-2
inactive: [13] 0.0569 | [14] 0.0805 | [5] 0.174 | [6] 0.0381 | [15] 0.0974 | [16] 0.058 | [17] 0.178 | [18] 0.0677 | [9] 0.062 | [10] -0.0188 | [19] 0.109 | [20] 0.099 | [21] 0.153 | [22] 0.0626 | [23] 0.132 | [24] 0.1

NCC(O)(CS(=O)(=O)O)c1ccc(Cl)cc1 (stereo not drawn)
inactive: [5] 0.186 | [6] 0.112 | [9] 0.0614 | [10] 0.0856

C[C@@H](N)C1CCC(C(=O)Nc2ccncc2)CC1 (stereo partly drawn)
inactive: [13] 0.00732 | [14] 0.0567 | [15] 0.0221 | [16] 0.0171 | [17] 0.0405 | [18] 0.0637 | [19] 0.092 | [20] 0.0378 | [21] 0.114 | [22] 0.124 | [23] 0.2 | [24] 0.112

CC(=O)CCCCn1c(=O)c2c(ncn2C)n(C)c1=O
inactive: [3] 0.0478 | [4] 0.0111 | [5] 0.0385 | [6] 0.102 | [7] 0.139 | [8] 0.0534 | [9] 0.0323 | [10] 0.0176

C[C@@H]1CC[C@@]2(OC1)O[C@H]1C[C@H]3[C@@H]4CC[C@H]5C[C@@H](O)CC[C@]5(C)[C@H]4CC(=O)[C@]3(C)[C@H]1[C@@H]2C
inactive: [3] 0.102 | [4] -0.00894 | [7] 0.127 | [8] 0.0766

COc1ccccc1CNC(=O)CN(c1ccc(Cl)cc1)S(C)(=O)=O
inactive: [3] -0.0129 | [4] 0.0689 | [7] 0.0751 | [8] 0.0379

C[C@H]1O[C@@H](n2cc(F)c(=O)[nH]c2=O)[C@H](O)[C@@H]1O
inactive: [1] 0.0333 | [2] 0.0231 | [4] 0.08 | [5] -0.00269 | [6] 0.0834 | [8] -0.0424 | [10] 0.0331
active: [3] -0.21 | [7] -1.24 | [9] -0.257 | [11] -2.97 | [12] -0.654

CC1(C)CC[C@]2(C(=O)O)CC[C@]3(C)C(=CC[C@@H]4[C@@]5(C)CC[C@H](O)C(C)(C)[C@@H]5CC[C@]43C)[C@@H]2C1
inactive: [3] 0.00326 | [4] 0.0504 | [7] 0.0878 | [8] 0.0225

CC(C)NC[C@H](O)COc1cccc2ccccc12
inactive: [5] 0.141 | [6] 0.0581 | [9] 0.131 | [10] 0.11

O=C(O)c1ccc(S(=O)(=O)N(Cl)Cl)cc1
inactive: [3] 0.0996 | [4] 0.0431 | [7] 0.144 | [8] 0.0571

O=C(Oc1ccccc1C(=O)O)c1ccccc1O
inactive: [3] 0.055 | [4] 0.0517 | [7] 0.0888 | [8] 0.06

COc1c(C)c2c(c(O)c1C/C=C(\C)CCC(=O)O)C(=O)OC2
active: [11] -0.533 | [12] -0.259 | [23] -0.488 | [24] -0.403
inactive: [1] 0.0161 | [2] 0.0434 | [13] 0.108 | [14] 0.173 | [3] 0.047 | [4] -0.0419 | [5] 0.0974 | [6] 0.108 | [15] 0.00407 | [16] 0.0569 | [17] 0.0822 | [18] 0.0245 | [7] 0.0367 | [8] 0.00349 | [9] 0.137 | [10] -0.00198 | [19] 0.147 | [20] 0.096 | [21] -0.0618 | [22] -0.0369

COC(=O)c1c(-c2cc(OC)c(OC)c(OC)c2)c2ccc(OCc3ccccn3)cc2c(=O)n1-c1ccc(N)cc1
inactive: [5] 0.233 | [6] 0.109 | [9] 0.207 | [10] 0.0911

C/C(=C\C(=O)Nc1ccccc1C(=O)O)c1ccc2ccccc2c1
inactive: [13] 0.0459 | [14] 0.0279 | [15] -0.00745 | [16] -0.00325 | [17] -0.0219 | [18] 0.0436 | [19] 0.00499 | [20] -1.3e-05 | [21] -0.0171 | [22] 0.0177 | [23] 0.0665 | [24] 0.0416

COc1ccc2c(c1)c(CC(=O)N1CCOCC1)c(C)n2C(=O)c1ccc(Cl)cc1
inactive: [5] 0.124 | [6] 0.153 | [9] 0.201 | [10] 0.242

CNCCCC12CCC(c3ccccc31)c1ccccc12
inactive: [13] 0.0546 | [14] 0.106 | [3] 0.144 | [4] 0.0864 | [5] 0.1 | [6] 0.0687 | [15] 0.0846 | [16] 0.0083 | [17] 0.0561 | [18] 0.12 | [7] 0.0405 | [8] 0.185 | [9] 0.103 | [10] 0.0925 | [19] 0.103 | [20] 0.0781 | [21] -0.0418 | [22] 0.0968 | [23] -0.0907 | [24] 0.0881

COc1cccc(CN2CCN(Cc3cccc([N+](=O)[O-])c3)CC2)c1
inactive: [3] 0.0814 | [4] 0.112

CCCCCC(=O)O[C@]1(C(C)=O)CC[C@H]2[C@@H]3CCC4=CC(=O)CC[C@]4(C)[C@H]3CC[C@@]21C
inactive: [3] 0.129 | [4] -0.0108 | [7] 0.14 | [8] 0.121
